Reference: article PMC12136788
The list shows a part of the results.

T1: UNK ZnF1-3 (human, UniProt Q9C0B0 31-174)
T1 sequence: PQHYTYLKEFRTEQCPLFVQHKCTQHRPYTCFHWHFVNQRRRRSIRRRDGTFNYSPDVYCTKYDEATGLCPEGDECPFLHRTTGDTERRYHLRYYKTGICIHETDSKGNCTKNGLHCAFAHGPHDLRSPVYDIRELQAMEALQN

B1: chr12:53619734:53619735:+_ENSMUSG00000035133_ENSMUST00000110725|mus_hu|FALSE|FALSE (ssRNA)
RNA: GGGAGUUCUACAGUCCGACGAUCUAUAUACCCAUGAACUAGUUCAUCUUUUCUUACUCCAAUUGAAGAGUGGUAUGAUAAUAUUGUGAUCUGUAUUCGCCUCCUUUUUUCACCAAUGAUUUUAUCAAGCAUUAGGGAAUUAUUCAACAGAGGAUUGAGCAUCA
B2: chr5:71490574:71490575:+_ENSG00000131711_ENST00000296755|hu_mus|FALSE|FALSE (ssRNA)
RNA: GGGAGUUCUACAGUCCGACGAUCUUUCUCAGCGGGGUUGGCCGGAUGCCACACAAUCAAAGAUGAGACUGAGGUUAAGUAGGAAAUCGGGAUGUCUACUUCUUGACCAUUGGGCAGGAUUAGUUCGGCCUUGUCUUUGUUGGUCAACAGAGGAUUGAGCAUCA
B3: chr7:87826631:87826632:+_ENSG00000008277_ENST00000398209|hu_hu|FALSE|FALSE (ssRNA)
RNA: GGGAGUUCUACAGUCCGACGAUCGCAUCAGCAAACUGUGGAGGCCAGAAGUUUUGCUGGGCAUUUUGUUCUCUCACUCAACUACUCACUCAAUAAAACUGCCUCCAGACUGUGCACAGGUUAAAGGGAUAUCACAUGUUUUGGCAACAGAGGAUUGAGCAUCA
B4: 95033280_95033856_1284_CDS_ENSG00000196305_ENST00000443024|human|control|control (ssRNA)
RNA: GGGAGUUCUACAGUCCGACGAUCGUAGCUGUGAGUGAAGGUGGUGGCAACCAGAAGUCGGCCUUGUUCCUUCAAAGUCCUGAUGAUACUUUUGUCAGCAUCCUUCACAUACUGUCCUGCGAAAUCUGUCACCUCCGUUGUGAACAACAGAGGAUUGAGCAUCA
B5: chr7:44244176:44244177:+_ENSG00000106636_ENST00000223369|hu_mus|hu_hu_hu_mus_False|58_98 (ssRNA)
RNA: GGGAGUUCUACAGUCCGACGAUCACUGUCGCUCCGGACGUAGACGUGGCAAAGAUACUCUUGUUCUUUGACAGAAGCUCUAGUGCCUUUCCCCGAGCGUUCCACAAUCAGUUGACUUGUAAAGGUCAUGAAUUCCUGCACACUCAACAGAGGAUUGAGCAUCA
B6: chr6:40197388:40197389:+_ENSMUSG00000057716_ENSMUST00000061740|mus_hu|FALSE|FALSE (ssRNA)
RNA: GGGAGUUCUACAGUCCGACGAUCGAGACACUGGGGUGGAUUUAUUCCACCUCUGUUUGGGUGCUAGCCACUAAGACUGUUAUUUUGGGAUUCAUGGCCUUGAAUAUCAAGAGGGAAAGGAAGAGGAUGGAAAGAGUCAAGAGUCAACAGAGGAUUGAGCAUCA
B7: chr5:71490377:71490378:+_ENSG00000131711_ENST00000296755|hu_hu|motif|central (ssRNA)
RNA: GGGAGUUCUACAGUCCGACGAUCACCUACUCCCAUUUUUUGGAAAAGAAUGACAGGAUCAAUAGUAUUGCCUACACUUCGGAACAGAGGUUCUGGUUUCAUGGACAAUUUGUUUAGGUACUGGAGAGUGAAGCAGGCUUCUUCCAACAGAGGAUUGAGCAUCA
B8: 165827124_165829745_1052_3pUTR_ENSG00000112541_ENST00000354448|human|control|control (ssRNA)
RNA: GGGAGUUCUACAGUCCGACGAUCGGCAUGCACAGGAUGUUCCGCGUGGUGUAGCCUGUGUACAAGUCUACUUCUCUGUUAAAGCGUGGGUCUGCAUAGGCAUCUGGAAUGUUCAGGACUUCCCCUGUUCUUGCUACUUGGCCACAACAGAGGAUUGAGCAUCA
B9: chr1:58468927:58468928:-_ENSMUSG00000026034_ENSMUST00000148330|mus_mus|mus_mus_mus_hu_False|28_98 (ssRNA)
RNA: GGGAGUUCUACAGUCCGACGAUCAAUUACUGAAAAAUGAAAGAUGUACCUUAGCUAUGUACUUAAUGAACCAAAUUACCCAAACAAAAUAAACAUGGCAAUAUAAAAAGCUAUACAAUUUACAAAGCUGUACAAAAUAACUUACAACAGAGGAUUGAGCAUCA
B10: chr7:7679991:7679992:-_ENSG00000106399_ENST00000396682|hu_hu|hu_hu_hu_mus_False|18_68 (ssRNA)
RNA: GGGAGUUCUACAGUCCGACGAUCUGGGAUGAAUCUUUUCCAGCUUCCCCACGAAGCACACGGGCCGGUCGAUGAAUUGUGGUAACAUGCUGGCGUUGACGCGCGCUUUGGGGAGCUCCAUCAUGUCCUCCAUGAUUCUGCCGCCAACAGAGGAUUGAGCAUCA
B11: chr2:64119684:64119685:-_ENSG00000143952_ENST00000409558|hu_hu|FALSE|FALSE (ssRNA)
RNA: GGGAGUUCUACAGUCCGACGAUCACAUCGAAAGUAACUUAAAAACAAGGAUCCAAGGGGGCCAUACUUCAUAUGUUAUCUAAAUGUUAAUAUGAGAACUCAAAAGUAGGCAGAUUAUAUGAAUACAUAUUCUUACCUCUGCUACAACAGAGGAUUGAGCAUCA
B12: chr4:39918803:39918804:-_ENSG00000121892_ENST00000303538|hu_mus|FALSE|FALSE (ssRNA)
RNA: GGGAGUUCUACAGUCCGACGAUCUACGUGUUCAGACAGGUCGCUGACUGAUGAUCUGCCCAGCACCAGGACUUGAUUGAAAAAAUUGGCAAUACAUGCUUCAAUAGUCUGGACUGUCCUUUUCAGUAGGACUUUUGCAAGGUCCAACAGAGGAUUGAGCAUCA
B13: chr11:53076483:53076484:-_ENSMUSG00000020361_ENSMUST00000020630|mus_mus|motif|central (ssRNA)
RNA: GGGAGUUCUACAGUCCGACGAUCUUCAAAUAAUUUUGGUCUUUCUUCAGAUUCCUGGAACCGUGUCUUAAUGGGUUGACCGGAACUUUUUAAUUCAGCCAAUUUGUCUACAUAAACUUGCUUUGGUUGAUCUUCUCCAUCUUCCAACAGAGGAUUGAGCAUCA
B14: chr7:75932113:75932114:+_ENSG00000106211_ENST00000248553|hu_hu|hu_hu_hu_mus_False|58_58 (ssRNA)
RNA: GGGAGUUCUACAGUCCGACGAUCCUGCGACCACUCAUCGGGCAACCGGGGCACCCCGAAAGCUUGAUCGAAGAGGCGGCUAUGCGGAGGGUACCAGUCCCGGAAUGGUUCCCAGCUCGGGCUCCGCAGCAGCGAGAAGGGCACCAACAGAGGAUUGAGCAUCA
B15: chr2:63824656:63824657:+_ENSG00000014641_ENST00000394423|hu_hu|FALSE|FALSE (ssRNA)
RNA: GGGAGUUCUACAGUCCGACGAUCGGUAUUGGCUGGAUUACCCACAACAAUAACCUUAACUGACUUCUUGGCGUAUUUAUCUAAGGCUGCACCCUGGGAUUUGAAGAUUUUCACAUUUGCUUUCAGUAAAUCUUUUCUCUCCAUCAACAGAGGAUUGAGCAUCA
B16: 87340232_87340352_1355_CDS_ENSMUSG00000003382_ENSMUST00000170036|mouse|control|control (ssRNA)
RNA: GGGAGUUCUACAGUCCGACGAUCGUCACUGGGAGUGCUAAUGGACACAGAGGGCCAGGUGGGUGAGGGGUGGGCAAACCCGGUGCCUUUCCCCUCUUCUAUGGUCCUGCUCCGCAUGCUGUCCACUUCUUGGGUCUGUUCCUCCAACAGAGGAUUGAGCAUCA
B17: chr19:60949100:60949101:-_ENSMUSG00000024997_ENSMUST00000025961|mus_mus|FALSE|FALSE (ssRNA)
RNA: GGGAGUUCUACAGUCCGACGAUCGGCAGAGGCAGACCACAGUAUGUCUGUCAAACAGGUUCUUCUAGAAGCAACAGGCCUAAGAACUGUUGAGGCAGAAAUACUCCGGGAAAUAGCACUUGCAUGACGAGCAACCGAGGACCACAACAGAGGAUUGAGCAUCA
B18: chr7:141438946:141438947:+_ENSG00000106028_ENST00000265304|hu_hu|motif|central (ssRNA)
RNA: GGGAGUUCUACAGUCCGACGAUCAAGUACCUGUAAUACAGGUCUUCGAAACAUGGCUUCUAUUUUCUUUUCUUACAGUCGGAUCUUUAGGCUUUUCCUGACGAUCUAACCCGAGCAGCCCAGCCACGCAGGGGAUCACUUCCGCAACAGAGGAUUGAGCAUCA
B19: chr4:95690885:95690886:+_ENSMUSG00000028572_ENSMUST00000156910|mus_mus|FALSE|FALSE (ssRNA)
RNA: GGGAGUUCUACAGUCCGACGAUCAUAAUUUUUAGAAAAUGUUAAAUAGCAUGCUAAGUAAUUUUAAAGUCUUAUUUUACUAAAAGACACAGGCAAGCAGACACCAUAAACAUACAAAAAUACAAACCAACAGUGUAAAAUGUACAACAGAGGAUUGAGCAUCA
B20: chr10:108335898:108335899:-_ENSG00000108018_ENST00000263054|hu_mus|FALSE|FALSE (ssRNA)
RNA: GGGAGUUCUACAGUCCGACGAUCAACUCUUUUACACACAGUAUAUGUUUCCAGGUGAGAAAACCAGAGGUAUUUGGCAAAGAAAGAUUUGUGGGGAGGAGAUAGAAGGUAAAUAUAACUGAAGCCAGCUGGGCAGGACACAGCCAACAGAGGAUUGAGCAUCA
B21: 82335059_82335179_1720_CDS_ENSG00000106829_ENST00000265284|human|control|control (ssRNA)
RNA: GGGAGUUCUACAGUCCGACGAUCCACAGCGAUGUUGCCGUCGCUGCAGCAUGAGAAGCAGACCUUGGAAUCGGGGCUGAUGGCCAGGGCAUAGCAGGCGGGGGCCGAGGAUGUCAGCUCUGCCUUGAUGCGUGGGGUUGGAGCCAACAGAGGAUUGAGCAUCA
B22: chr10:33214929:33214930:-_ENSG00000150093_ENST00000302278|hu_hu|hu_hu_hu_mus_True|38_108 (ssRNA)
RNA: GGGAGUUCUACAGUCCGACGAUCAACAAGUUCAUUAAAAAACUCUCCUCUGUCAGUAAGACUAAGCACAUUUUUGUAGCUAAAUGGGCUGGUGCAGUUCUGUUCACUUGUACAAGGAUUUCUUAGCUUUGCUGGGGUUGUGCUCAACAGAGGAUUGAGCAUCA

Molecular target: T1, UNK ZnF1-3
Test: nsRBNS (natural sequence RNA bind-n-seq); RBNS binding buffer (assumed for nsRBNS): 25 mM Tris pH 7.5, 150 mM KCl, 3 mM MgCl2, 0.01% Triton X-100, 500 ug/ml BSA, 20 U/ml SUPERase-In, 4 C; UNK is unkempt and MSI1 is Musashi-1; names of the RNAs are library labels; protein concentration not given here; high values mean tight binding

Going from B1 to B2, the binding signal rises from 0.616 enrichment R to 1.07 enrichment R.

First: B3
Second: B4
The binding signal of the first is higher: 1.76 enrichment R for the first, 0.522 enrichment R for the second.

First: B5
Second: B6
The binding signal of the first is lower: 0.642 enrichment R for the first, 1.37 enrichment R for the second.

First: B7
Second: B8
The binding signal of the first is higher: 1.19 enrichment R for the first, 0.591 enrichment R for the second.

Compared with B9, B10 is lower in binding signal: 1.35 enrichment R for the first, 0.959 enrichment R for the second.

Compared with B11, B12 is lower in binding signal: 1.32 enrichment R for the first, 0.573 enrichment R for the second.

Going from B13 to B14, the binding signal rises from 0.462 enrichment R to 0.965 enrichment R.

First: B15
Second: B16
The binding signal of the first is higher: 0.575 enrichment R for the first, 0.515 enrichment R for the second.

First: B17
Second: B18
The binding signal of the first is higher: 1.45 enrichment R for the first, 0.597 enrichment R for the second.

Compared with B19, B20 is higher in binding signal: 1.91 enrichment R for the first, 2.97 enrichment R for the second.

Going from B21 to B22, the binding signal falls from 0.995 enrichment R to 0.954 enrichment R.
